The list shows a part of the results. Many values rest on one well or one pass, so single values are uncertain.
How the values were obtained:
Assay in all cases: cell count relative to DMSO control; melanoma cells; higher = more viable cells
Settings in all cases: library dose: standard library concentration; 72 h
G361 = tested on: G361
IPC-298 = tested on: IPC-298
IST-MEL1 = tested on: IST-MEL1
LB2518-MEL = tested on: LB2518-MEL
LOXIMVI = tested on: LOXIMVI
MEL-HO = tested on: MEL-HO
MZ2-MEL = tested on: MZ2-MEL
MeWo = tested on: MeWo
RPMI7951 = tested on: RPMI7951
RVH-421 = tested on: RVH-421
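Note: cells treated in 1,536-well plates, then fixed and DAPI-stained, with nuclei counted from automated high-throughput microscope images.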

| SMILES | cell count (G361) [%] | cell count (IPC-298) [%] | cell count (IST-MEL1) [%] | cell count (LB2518-MEL) [%] | cell count (LOXIMVI) [%] | cell count (MEL-HO) [%] | cell count (MZ2-MEL) [%] | cell count (MeWo) [%] | cell count (RPMI7951) [%] | cell count (RVH-421) [%] |
| --- | --- | --- | --- | --- | --- | --- | --- | --- | --- | --- |
| CS(=O)(=O)c1ccc(C(=O)Nc2ccc(Cl)c(-c3ccccn3)c2)c(Cl)c1 [vismodegib] + O=c1cc(-c2cccc3c2Sc2ccccc2S3)oc(N2CCOCC2)c1 [KU55933] (first compound 5 µM, partner dose 5 µM) | 77.9 | 90.7 | 94.9 | 98.4 | 103 | 82.9 | 101 | 102 | 107 | 108 |
| CCCS(=O)(=O)Nc1ccc(F)c(C(=O)c2c[nH]c3ncc(Cl)cc23)c1F + COc1cc(Nc2ncc(F)c(Nc3ccc4c(n3)NC(=O)C(C)(C)O4)n2)cc(OC)c1OC [Tamatinib] (first compound 0.4 µM, partner dose 2 µM) | 56.8 | 73.1 | 24.3 | 83 | 8.9 | 70.7 | 78.4 | 76.2 | 23.2 | 7.25 |
| CCCS(=O)(=O)Nc1ccc(F)c(C(=O)c2c[nH]c3ncc(Cl)cc23)c1F + Nc1cccc2c1CN(C1CCC(=O)NC1=O)C2=O [lenalidomide] (first compound 0.4 µM, partner dose 5 µM) | 78.2 | 81.4 | 98.6 | 132 | 98.3 | 102 | 87.2 | 98.5 | 75.1 | 119 |
| CS(=O)(=O)c1ccc(C(=O)Nc2ccc(Cl)c(-c3ccccn3)c2)c(Cl)c1 [vismodegib] + O=C(O)C(=O)Nc1sc2c(c1C(=O)O)CCNC2 [TCS401] (first compound 5 µM, partner dose 8.33333 µM) | 93.1 | 93.8 | 107 | 98.5 | 96.4 | 90.6 | 102 | 86.6 | 90.7 | 137 |
| CN(c1ncccc1CNc1nc(Nc2ccc3c(c2)CC(=O)N3)ncc1C(F)(F)F)S(C)(=O)=O + CCN(CC)CCCCNc1ncc2cc(-c3cc(OC)cc(OC)c3)c(NC(=O)NC(C)(C)C)nc2n1 [PD173074] (first compound 0.4 µM, partner dose 0.5 µM) | 89.4 | 84.7 | 82.7 | 80.6 | 67.7 | 96.9 | 79 | 93.5 | 67.3 | 88.1 |
| CS(=O)(=O)c1ccc(C(=O)Nc2ccc(Cl)c(-c3ccccn3)c2)c(Cl)c1 [vismodegib] + O=C(O)c1ccc2c(c1)nc(Nc1cccc(Cl)c1)c1ccncc12 [CX4945] (first compound 5 µM, partner dose 2 µM) | 56.7 | 72.6 | 75.3 | 101 | 43.9 | 57.2 | 62 | 84.6 | 82.1 | 77.2 |
| CS(=O)(=O)c1ccc(C(=O)Nc2ccc(Cl)c(-c3ccccn3)c2)c(Cl)c1 [vismodegib] + O=C(O)[C@@H]1[O][Sb](=[O])([O][Sb]2(=[O])[O][C@H]([C@H](O)CO)[C@H](O)[C@H](C(=O)O)[O]2)[O][C@H]([C@H](O)CO)[C@@H]1O [stibogluconate] (first compound 5 µM, partner dose 10 µM) | 95.8 | 83.7 | 109 | 106 | 74 | 109 | 109 | 80 | 106 | 119 |
| CCCS(=O)(=O)Nc1ccc(F)c(C(=O)c2c[nH]c3ncc(Cl)cc23)c1F + C=CCNC1=C2C[C@@H](C)C[C@H](OC)[C@H](O)[C@@H](C)/C=C(\C)[C@H](OC(N)=O)[C@@H](OC)/C=C\C=C(/C)C(=O)NC(=CC1=O)C2=O [Tanespimycin] (first compound 0.4 µM, partner dose 0.01 µM) | 64.4 | 63.4 | 32.6 | 94.9 | 93.9 | 77.6 | 86.4 | 94.5 | 34.7 | 76 |
| CN(c1ncccc1CNc1nc(Nc2ccc3c(c2)CC(=O)N3)ncc1C(F)(F)F)S(C)(=O)=O + C=CCNC1=C2C[C@@H](C)C[C@H](OC)[C@H](O)[C@@H](C)/C=C(\C)[C@H](OC(N)=O)[C@@H](OC)/C=C\C=C(/C)C(=O)NC(=CC1=O)C2=O [Tanespimycin] (first compound 0.4 µM, partner dose 0.01 µM) | 63.7 | 86.1 | 76.7 | 70 | 126 | 94 | 83.1 | 101 | 14 | 77.6 |
| NC1(c2ccc(-c3nc4ccn5c(=O)[nH]nc5c4cc3-c3ccccc3)cc2)CCC1 + OCc1c[nH]c2ccccc12 [Indole-3-carbinol] (first compound 2 µM, partner dose 4 µM) | 94.1 | 92.5 | 87.9 | 64.2 | 104 | 88.5 | 89.3 | 75.6 | 69.9 | 78.6 |
| CN(c1ncccc1CNc1nc(Nc2ccc3c(c2)CC(=O)N3)ncc1C(F)(F)F)S(C)(=O)=O + O=C(O)c1ccc(-c2c[nH]c3ncc(-c4ccccc4)cc23)cc1C1CCCC1 [GSK650394] (first compound 0.4 µM, partner dose 0.8 µM) | 50.7 | 92.2 | 78 | 91.5 | 74.4 | 79.9 | 81.7 | 100 | 76.6 | 82.1 |
| NC1(c2ccc(-c3nc4ccn5c(=O)[nH]nc5c4cc3-c3ccccc3)cc2)CCC1 + Cn1nnc2c(C(N)=O)ncn2c1=O [temozolomide] (first compound 2 µM, partner dose 10 µM) | 121 | 85.2 | 86.9 | 84.1 | 65.8 | 84.8 | 117 | 77 | 72.6 | 124 |
| NC1(c2ccc(-c3nc4ccn5c(=O)[nH]nc5c4cc3-c3ccccc3)cc2)CCC1 + CC(C)CCN1c2nc(Nc3cc(F)c(O)c(F)c3)ncc2N(C)C(=O)C1C [BID1870] (first compound 2 µM, partner dose 1 µM) | 58.6 | 71.4 | 79.3 | 105 | 53.8 | 55.3 | 92.1 | 66.7 | 89.3 | 75 |
| NC1(c2ccc(-c3nc4ccn5c(=O)[nH]nc5c4cc3-c3ccccc3)cc2)CCC1 + O=C(Nc1cccc(Cl)c1)Nc1ncc(CCNc2ncnc3ccsc23)s1 [SNS314] (first compound 2 µM, partner dose 0.004 µM) | 75.3 | 92.9 | 61.6 | 72.8 | 92.7 | 65.2 | 91.8 | 77.1 | 51.6 | 81.9 |
| NC1(c2ccc(-c3nc4ccn5c(=O)[nH]nc5c4cc3-c3ccccc3)cc2)CCC1 + CNC(=O)c1cc(Oc2ccc(NC(=O)Nc3ccc(Cl)c(C(F)(F)F)c3)cc2)ccn1 [sorafenib] (first compound 2 µM, partner dose 2 µM) | 84.9 | 66.2 | 114 | 69.4 | 86 | 90.5 | 115 | 84.1 | 117 | 85.7 |
| CN(c1ncccc1CNc1nc(Nc2ccc3c(c2)CC(=O)N3)ncc1C(F)(F)F)S(C)(=O)=O + CC(C)(C)c1cnc(CSc2cnc(NC(=O)C3CCNCC3)s2)o1 [SNS-032] (first compound 0.4 µM, partner dose 0.05 µM) | 82.6 | 102 | 84.9 | 64.6 | 58.4 | 88.7 | 91.2 | 83.2 | 16.3 | 79.6 |
| CCCS(=O)(=O)Nc1ccc(F)c(C(=O)c2c[nH]c3ncc(Cl)cc23)c1F + CC(C)CCN1c2nc(Nc3cc(F)c(O)c(F)c3)ncc2N(C)C(=O)C1C [BID1870] (first compound 0.4 µM, partner dose 1 µM) | 65.8 | 71.2 | 73.9 | 110 | 81.2 | 69.4 | 94 | 80.7 | 103 | 65.8 |
| C=C(c1ccc(C(=O)O)cc1)c1cc2c(cc1C)C(C)(C)CCC2(C)C [Bexarotene] + COc1cc(N2CCC(N3CCN(C)CC3)CC2)ccc1Nc1ncc(Cl)c(Nc2ccccc2S(=O)(=O)C(C)C)n1 [NVP-TAE684] (first compound 10 µM, partner dose 0.4 µM) | 68.2 | 90.5 | 94.4 | 96.4 | 108 | 84.4 | 94.5 | 68.7 | 75.8 | 85.4 |
| NC1(c2ccc(-c3nc4ccn5c(=O)[nH]nc5c4cc3-c3ccccc3)cc2)CCC1 + COc1cc2ncnc(Nc3ccc(Oc4ccccc4)cc3)c2cc1OC [SrcI1] (first compound 2 µM, partner dose 10 µM) | 14.9 | 69.3 | 42.2 | 73.2 | 78.1 | 55 | 49.5 | 52 | 6.34 | 64 |
| C=C(c1ccc(C(=O)O)cc1)c1cc2c(cc1C)C(C)(C)CCC2(C)C [Bexarotene] + CC(C)CCN1c2nc(Nc3cc(F)c(O)c(F)c3)ncc2N(C)C(=O)C1C [BID1870] (first compound 10 µM, partner dose 1 µM) | 63.8 | 68.5 | 75.9 | 89.9 | 78.5 | 64.1 | 87.4 | 71.1 | 56.1 | 72.1 |
| CCCS(=O)(=O)Nc1ccc(F)c(C(=O)c2c[nH]c3ncc(Cl)cc23)c1F + CO[C@@H]1[C@H](N(C)C(=O)c2ccccc2)C[C@H]2O[C@]1(C)n1c3ccccc3c3c4c(c5c6ccccc6n2c5c31)C(=O)NC4 [Midostaurin] (first compound 0.4 µM, partner dose 0.4 µM) | 62.8 | 66 | 73 | 59.5 | 47.8 | 74.9 | 56.8 | 84.6 | 54 | 78.6 |
| CN(c1ncccc1CNc1nc(Nc2ccc3c(c2)CC(=O)N3)ncc1C(F)(F)F)S(C)(=O)=O + C#Cc1cccc(Nc2ncnc3cc(OCCOC)c(OCCOC)cc23)c1 [erlotinib] (first compound 0.4 µM, partner dose 4 µM) | 56.1 | 59.2 | 75.6 | 65.5 | 88.9 | 62 | 52.2 | 83.8 | 52.4 | 71.7 |

Source: the supplement of paper PMC4604168 (melanoma cell lines)
